# Experimental data as given in PubChem BioAssay AID463173 (ICCB-Longwood Screening Facility, Harvard Medical School, 2010).
# Screen size: about 52,000 compounds; about 4,300 (8.3%) were called active. Rule as the data show it: active = survival mostly below about 52% (no sharp cut-off); inactive = mostly above about 56%. Some of the results follow.
# System: DeltatarO mutant
# Experiment: S. aureus survival, RN4220 and DeltatarO strains – OD600, teichoic acid synthesis inhibitors, primary screen (AID 463173)
# Settings: S. aureus RN4220 wild type/DeltatarO growth, OD600, 18 h, active compounds read low, screened at 18.75 µg/mL (by protocol)
row,SMILES,survival
1,CCOC(=O)C1CCCN(C(=O)c2ccc3c(c2)N(Cc2ccccc2F)C(=O)c2ccccc2S3=O)C1 (configuration not stated),inactive: 86%
2,COc1ccc(CCNC(=O)CCn2c(=O)c3ccccc3n(CC(=O)Nc3cc(Cl)ccc3C)c2=O)cc1OC,inactive: 75%
3,CCc1ccccc1NC(=O)Nc1cc(C(=O)NCc2ccccc2OC)ccc1N1CCCC1,inactive: 87%
4,O=C(CCn1nc(-c2ccccc2)c2ccccc2c1=O)Nc1cccnc1,inactive: 105%
5,Cc1cc(=O)[nH]c(SC(C)C(=O)NC2CCCCC2)n1 (configuration not stated),inactive: 77%
6,O=C(O)C1CC=CCC1C(=O)N1CCCC1 (configuration not stated),inactive: 102%
7,CCc1ccc(NC(=O)CC2C(=O)N(c3ccc(OC)cc3)C(=O)N2Cc2cccs2)cc1 (configuration not stated),inactive: 101%
8,COc1ccc(CC(=O)NCC2OCCc3ccccc32)cc1OC (configuration not stated),inactive: 88%
9,Cc1ccc(C(=O)Nc2ccc3oc(-c4cc(Br)ccc4Cl)nc3c2)cc1,inactive: 70%
10,O=C(Nc1cccc(Cl)c1Cl)c1cc(S(=O)(=O)N2CCCc3ccccc32)ccc1F,inactive: 88%
11,COc1cc(OC)c(N(C)C(=O)CSc2c3c(nc4ccc(Cl)cc24)CCCC3)cc1Cl,active: 33%
12,COc1ccc(C(=O)Nc2ccc3oc(-c4cc(Cl)ccc4Cl)nc3c2)cc1Br,inactive: 71%
13,CCOC(=O)c1cnc2c(C)cc(C)cc2c1Nc1ccccc1OCC,active: -1%
14,Cc1nn2c(-c3ccco3)ccnc2c1-c1ccc(Cl)cc1,inactive: 94%
15,Clc1cccc(-n2ncc3c(Nc4ccc5c(c4)OCCO5)ncnc32)c1,inactive: 55%
16,Cc1ccc(C)c(Cn2c(=O)n(-c3ccc(F)cc3)c(=O)c3sc4ccccc4c32)c1,inactive: 95%
17,COc1ccc(N2CCN(C(=O)Cn3c(-c4cccs4)cc4ccccc43)CC2)cc1,inactive: 80%
18,CC(=O)N1CCc2cc(S(=O)(=O)NC(Cc3ccccc3)C(=O)Nc3ccc(C)cc3C)ccc21 (configuration not stated),inactive: 68%
19,O=C(CSc1nc2ccsc2c(=O)n1Cc1ccccc1F)NCc1ccccc1Cl,inactive: 108%

row,SMILES,survival
1,Cc1ccc(NC(=O)Nc2cccs2)c(C)c1,inactive: 91%
2,CCN1C(=O)c2ccccc2Sc2ccc(NC(=O)c3cccc(C)c3)cc21,inactive: 89%
3,COc1ccc(N(C(=O)c2cccc(C)c2)S(=O)(=O)c2ccc3c(c2)n(C)c(=O)n3C)cc1,inactive: 91%
4,CCOC(=O)c1cc(OC(=O)c2ccccc2OC)n(-c2ccccc2)n1,inactive: 54%
5,O=C(Cn1c(=O)n(-c2ccccc2)c(=O)c2ccc(C(=O)NCc3ccc4c(c3)OCO4)cc21)Nc1ccc(F)c(Cl)c1,inactive: 65%
6,CN(CCCNC(=O)c1cc2c(=O)n(C)c3ccccc3c2s1)Cc1ccccc1,inactive: 94%
7,COC(=O)Cn1c2ccccc2c2nc(C)sc21,inactive: 79%
8,CC(C(=O)O)N1C(=O)/C(=C/c2ccco2)SC1=S (configuration not stated),inactive: 99%
9,COC(=O)c1c(NC(=O)/C=C/c2ccc(OC)cc2)sc2c1CCC2,inactive: 102%
10,COc1ccc(CNC(=O)CSc2ncc3c(n2)-c2cc(Cl)ccc2N(C)S3(=O)=O)cc1,inactive: 75%
11,CC(C)c1cnc2c(c1SCC(=O)Nc1ccc(C(N)=O)cc1)c(=O)n(C)c(=O)n2C,inactive: 72%
12,CCOC(=O)Cn1c(-c2cccs2)cc2cc(Cl)ccc21,inactive: 59%
13,CCOC(=O)C1(C(=O)OCC)CC1(C(=O)OCC)C(=O)OCC,inactive: 89%
14,O=C(Cn1c(=O)ccc2cc(S(=O)(=O)N3CCCC3)ccc21)Nc1ccc(Cl)cc1,inactive: 91%
15,Cc1ccc(Cl)cc1NC(=O)CSCc1cnn(-c2ccccc2)c1-n1cccc1,inactive: 70%
16,Cn1nnnc1SCCCNCc1ccccc1OCc1ccc(F)cc1,active: 57%
17,CCN(C(=O)c1cn(C)c(=O)c2ccccc12)c1cccc(C)c1,inactive: 162%
18,Cc1cccc(NS(=O)(=O)c2ccc3c(c2)CCN3C(=O)C2CC2)c1C,inactive: 64%
19,O=C(c1ccccc1Br)N(Cc1ccccc1F)C1CCS(=O)(=O)C1 (configuration not stated),inactive: 110%

row,SMILES,survival
1,CCC(C)NC(=O)CSCc1nc(-c2ccc(C)cc2)oc1C (configuration not stated),inactive: 81%
2,CN1CCN(C(=O)c2ccc3c(c2)N(Cc2ccc(Cl)cc2)C(=O)c2ccccc2S3(=O)=O)CC1,inactive: 78%
3,Cc1cccc(CC(=O)NCCc2sc3nc(-c4ccc(F)cc4)nn3c2C)c1,inactive: 91%
4,c1ccc2c(c1)[nH]c1nc(NN=C3CCC(=NNc4nnc5c(n4)[nH]c4ccccc45)CC3)nnc12,inactive: 93%
5,CN(C)CC(O)C1CCOC(C)(C)C1 (configuration not stated),inactive: 101%
6,CCOc1ccc(CCNC(=O)c2ccc(-c3nc(CSc4ccccc4)c(C)o3)cc2)cc1,inactive: 85%
7,CCc1ccc(N(CC)C(=O)c2sc3nc4n(c(=O)c3c2C)CCCC4)cc1,inactive: 63%
8,CCN(CC)c1ccc(CNS(=O)(=O)c2cc3c(cc2C)NC(=O)CO3)cc1,inactive: 69%
9,Nc1ccc2c(c1)C(=O)N(CCCCN1C(=O)c3ccc(N)cc3C1=O)C2=O,inactive: 87%
10,COc1ccc(NC(=O)CSc2ncc3c(n2)-c2ccccc2N(C)S3(=O)=O)cc1Cl,inactive: 103%
11,Cn1c(SCc2ccccc2Cl)nc(=O)c2c1NC(=O)CC2c1cc(F)ccc1F (configuration not stated),inactive: 45%
12,CCOc1ccc(NC(=O)Nc2c[nH]c(=O)[nH]c2=O)cc1,inactive: 93%
13,CCOc1ccc(C(=O)NCCc2sc(-c3ccc(F)cc3)nc2C)cc1,inactive: 90%
14,COc1ccc(Nc2ncc(C(=O)N3CCN(c4ccccc4OC)CC3)c3ccccc23)cc1,inactive: 62%
15,CCOC(=O)c1ccc(NC(=O)CN2C(=O)c3cccnc3Sc3ccccc32)cc1,inactive: 84%
16,O=C(Cn1ncc2c3ccccc3n(Cc3cccc(Cl)c3)c2c1=O)NCCC1=CCCCC1,inactive: 90%
17,Cc1ccccc1Cn1c(=O)n(CCCCCC(=O)NCc2ccc3c(c2)OCO3)c(=O)c2sccc21,inactive: 101%
18,Cc1ccc(S(=O)(=O)Cn2nnnc2C(C(C)C)N2CCSCC2)cc1 (configuration not stated),inactive: 90%
19,Cc1nccn1S(=O)(=O)c1c(C(C)C)cc(C(C)C)cc1C(C)C,inactive: 86%
